# The supplement of paper PMC11417369
# This is one part of the list.
# Test system: PfHDP1 homeodomain (GST-tagged)
# Test: gcPBM binding intensity (ln(normalized median fluorescence intensity)); higher = stronger DNA binding
# In short: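 For binding intensity, the highest Masliner-normalised natural-log median intensity across replicate spots of either probe orientation was taken. Protein bound to the array was stained with Alexa488 anti-GST antibody and scanned at 488 nm. The protein, GST-tagged P. falciparum DNA-binding domains from E. coli at about 25 μg on average, had been applied for 1 h to an Agilent 4 × 180k array of primer-extended double-stranded 36-bp intergenic genomic probes and negative controls.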
row,Sequence,gcPBM binding intensity (ln)
1,AGGTAGAAATTGTTAAAAAATCATACATATTATATA [CACACA_negctrl_site622],6.01
2,GTTAATTCTATGAATTGTACTTAAATATAATTATAT [XGTACX_site2785],6.2
3,ATAAATACTAAAAATGAAATATAGAAAATAGCAATA [CACACA_negctrl_site501],6.72
4,TATAATATATTATATACACACATTATAAAATACCCA [CACACA_site4858],6.77
5,ACAGTTAAAACAATAACACACAAAGAAAAAAAAAAA [CACACA_site737],6.15
6,CAAAATAAAAATAACACACACATTTATATAAATACA [CACACA_site4790],6.79
7,AACAATAATTTTGAATGTACATATAAATATTTTTAT [XGTACX_site5501],6.4
8,ATATACATATAGGATGCACACATAATTCAAATACAA [CACACA_site8120],8.36
9,AAAAAAAAGAATAGCACACACACATATATAAATATA [CACACA_site630],6.92
10,TATAATGGTTCTGGTGTGCACCATGACAGAATCAAG,9.35
11,AATAATATTTAATACGCACACAATAATAATATAAAA [CACACA_site1763],7.35
12,GTGAAAGGAAAAGTTGAACACACAAAGTAAACTATA [CACACA_site9178],6.55
13,TCTTATAAAGGTAATTGTACATATTTATAATTTCTT [XGTACX_site4847],6.14
14,ATATATTATTATACATGTACATATATAGATATATAT [XGTACX_site4358],6.57
15,CACACGCACGAACACACACACATATAAATATAAATA [CACACA_site6299],7.8
16,TATATATATAATTAAAGTACATATAACCACAAAAAT [XGTACX_site7289],7.01
17,TAATATAATATATATACACACAAGAAATACAAAACG [CACACA_site1378],7.45
18,ACATAAATTTAATACACACACAAAGAAAAAAAAAAA [CACACA_site4088],6.52
19,ATATTATTATAATATACATATATATATATAATATAT [CACACA_negctrl_site480],6.41
20,AATAATAATAAATATACACACATCATACAATTAACA [CACACA_site3679],6.7
21,TATTTTTTTCTTACTACACACATATAGATGCTTTCC [CACACA_site7825],6.73
22,GGTCTTTTCAACACACGTACATAAAAATATTATACA [XGTACX_site5360],7.23

row,Sequence,gcPBM binding intensity (ln)
1,TAAACATATAGAGGGGTGCAAAGAATTGTAAAATTT,9
2,TATATATTGATATGCACACCTATGTATTGATGTATA [CACACA_site1073],10
3,ACATAAAATTGTTAAAAAATTGTATAAATAATACAT [XGTACX_negctrl_site557],5.98
4,GAAAAGCAGATAAATGTGCACATATATGTTTGTATA,10.8
5,TATAGGTATATATAAGTGCAATATATATGTATATAC [GTGCAC_site9427],9.51
6,TATTATTTTTTAAATTGTACAATAAATTATAAAAGG [XGTACX_site1162],6.39
7,CAGCTCTTAAAAATTACACACATATACTCATATATA [CACACA_site5757],6.55
8,TTATAAAAATAATATCGTACAAATGACATAGATGAA [XGTACX_site2570],6.6
9,AGATATTTTATAATTACACACATGAGGTTATTTGAA [CACACA_site1999],6.35
10,CATATACATAAACACACACACACATAAATAAATATA [CACACA_site4864],6.9
11,ACCTAAAAGGTATAATATATAAATAAAAAAAAAAAT [CACACA_negctrl_site134],6.51
12,TATTAATCTAATTCATAAAAAATGATCTATTTTGTT [CACACA_negctrl_site1035],6.03
13,AAAATGAACAGACACACACACATATTTATATTTATA [CACACA_site7182],6.65
14,TAGAATAATCTATAAACACACAAACACAACAAAAGA [CACACA_site7861],7.07
15,AACATTTGATAAGATACACACACAAGGAAAAAAATA [CACACA_site8004],7.01
16,TTTTTTTCTTTATTAGCACACATAATATTATATATG [CACACA_site8841],7.28
17,TATATCATTATATAAACACACAATATGTTTTTTATA [CACACA_site3781],6.13
18,TTAAGATATATAAAGAGTACACATAAGAGTAATGCT [XGTACX_site58],6.34
19,TATAATACATTATATTGTACTATATTATAATAAATT [XGTACX_site5934],6.23
20,ACAAATAAAAATATTACACACACTATTCTAGTGATA [CACACA_site6812],6.37
21,GACAAATTATTGTGTACACAATATTATTATATATAC [CACACA_site6020],7.47
22,CTTATGTTTTTTAAGTGTACATATTATACGTATTAT [XGTACX_site1176],6.8
